# Reference: patent publication US9233155B2, “Method of treating solid cancers using anti-c-Met antibody and sorafenib combination therapy” (Samsung Electronics Co., Ltd., priority 2013, dated 2016)
# Legend:
# Conditions in all cases: among huAbF46-H4-A1, -A2, -A3, -A5
# [1] = test system: Akt phosphorylation; assay: Akt phosphorylation by affinity-matured antibodies; type: cell-based
# [2] = molecular target: T1, c-Met (Homo sapiens, UniProt P08581); assay: Affinity for c-Met of affinity-matured antibodies; type: binding
# T1 sequence (P08581 25-1390): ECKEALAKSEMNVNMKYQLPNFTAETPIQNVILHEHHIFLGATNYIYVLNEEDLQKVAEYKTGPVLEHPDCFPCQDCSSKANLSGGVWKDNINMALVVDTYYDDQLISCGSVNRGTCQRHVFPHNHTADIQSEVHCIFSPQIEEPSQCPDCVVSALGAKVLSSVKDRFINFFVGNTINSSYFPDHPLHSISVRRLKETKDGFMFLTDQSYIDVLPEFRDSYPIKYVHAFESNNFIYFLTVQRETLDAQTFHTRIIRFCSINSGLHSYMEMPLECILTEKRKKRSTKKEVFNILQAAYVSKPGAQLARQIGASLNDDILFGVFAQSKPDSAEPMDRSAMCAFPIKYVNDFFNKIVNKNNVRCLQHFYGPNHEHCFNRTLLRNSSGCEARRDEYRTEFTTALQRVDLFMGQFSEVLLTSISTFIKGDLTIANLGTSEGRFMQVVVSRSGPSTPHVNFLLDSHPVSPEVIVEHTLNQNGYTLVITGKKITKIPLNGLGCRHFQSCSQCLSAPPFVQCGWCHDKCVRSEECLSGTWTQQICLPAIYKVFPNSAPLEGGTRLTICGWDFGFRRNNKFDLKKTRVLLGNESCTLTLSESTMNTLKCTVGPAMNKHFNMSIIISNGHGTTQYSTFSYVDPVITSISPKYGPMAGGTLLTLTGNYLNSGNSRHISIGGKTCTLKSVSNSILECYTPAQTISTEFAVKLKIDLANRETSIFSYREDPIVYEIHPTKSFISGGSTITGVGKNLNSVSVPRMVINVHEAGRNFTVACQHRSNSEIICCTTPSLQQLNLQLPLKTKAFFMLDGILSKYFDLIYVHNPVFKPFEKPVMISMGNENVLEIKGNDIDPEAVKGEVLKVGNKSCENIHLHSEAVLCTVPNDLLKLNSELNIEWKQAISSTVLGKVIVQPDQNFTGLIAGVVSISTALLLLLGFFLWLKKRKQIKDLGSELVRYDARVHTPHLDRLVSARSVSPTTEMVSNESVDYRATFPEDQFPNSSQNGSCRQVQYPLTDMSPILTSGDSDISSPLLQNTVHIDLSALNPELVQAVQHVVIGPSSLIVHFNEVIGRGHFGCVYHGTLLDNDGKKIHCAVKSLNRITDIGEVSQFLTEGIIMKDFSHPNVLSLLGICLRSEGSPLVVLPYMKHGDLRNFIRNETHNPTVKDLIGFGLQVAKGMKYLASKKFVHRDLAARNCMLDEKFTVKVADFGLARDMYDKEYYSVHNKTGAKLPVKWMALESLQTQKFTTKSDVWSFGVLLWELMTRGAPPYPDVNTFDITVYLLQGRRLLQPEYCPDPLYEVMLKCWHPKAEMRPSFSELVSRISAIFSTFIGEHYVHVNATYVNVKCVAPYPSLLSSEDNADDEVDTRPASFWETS
# [3] = molecular target: T1, c-Met; assay: c-Met degradation degree of affinity-matured antibodies; type: cell-based
molecule,measurement,setting,value
huAbF46-H4-A1: affinity-matured humanized anti-c-Met antibody of L3-1 origin (CDR-L3 SEQ ID NO: 13) (antibody) heavy: EVQLVESGGGLVQPGGSLRLSCAASGFTFTDYYMSWVRQAPGKGLEWLGFIRNKANGYTTEYSASVKGRFTISRDNSKNTLYLQMNSLRAEDTAVYYCARDNWFAYWGQGTLVTVSSASTKGPSVFPLAPSSKSTSGGTAALGCLVKDYFPEPVTVSWNSGALTSGVHTFPAVLQSSGLYSLSSVVTVPSSSLGTQTYICNVNHKPSNTKVDKKVEPKSCDCH[letters of human IgG1 Fc not shown] light: DIQMTQSPSSLSASVGDRVTITCKSSQSLLASGNQNNYLAWHQQKPGKAPKMLIIWASTRVSGVPSRFSGSGSGTDFTLTISSLQPEDFATYYCQQSYSRPYTFGQGTKVEIKRTVAAPSVFIFPPSDEQLKSGTASVVCLLNNFYPREAKVQWKVDNALQSGNSQESVTEQDSKDSTYSLSSTLTLSKADYEKHKVYACEVTHQGLSSPVTKSFNRGEC,Akt phosphorylation (rank among the four selected antibodies),[1],lowest
same,affinity for c-Met (rank among the four selected antibodies),[2],highest
same,c-Met degradation degree (rank among the four selected antibodies),[3],lowest
